Assay results published in PubChem BioAssay AID485344 (National Center for Advancing Translational Sciences (NCATS), 2010).
Screen size: about 340,000 compounds; about 6,900 (2%) were called active. Cut-off read from the data, not from the text of the source: active = inhibition above about 30%; inactive = below that, where a call was filed. Only a part is listed here, and it is no random draw. Where no call is shown, the source filed none.
Note: 0% is about no effect.

The compounds below were run against D(2) dopamine receptor (Homo sapiens) (UniProt P14416) (assay: HTS Assay for Allosteric Antagonists of the Human D2 Dopamine Receptor: Primary Screen for Antagonists). Details: HEK293 TREx D2 cells, calcium flux, dopamine EC80; at 10 µM; stronger effect = higher value.
Chain of UniProt P14416 (P14416 whole entry, looked up): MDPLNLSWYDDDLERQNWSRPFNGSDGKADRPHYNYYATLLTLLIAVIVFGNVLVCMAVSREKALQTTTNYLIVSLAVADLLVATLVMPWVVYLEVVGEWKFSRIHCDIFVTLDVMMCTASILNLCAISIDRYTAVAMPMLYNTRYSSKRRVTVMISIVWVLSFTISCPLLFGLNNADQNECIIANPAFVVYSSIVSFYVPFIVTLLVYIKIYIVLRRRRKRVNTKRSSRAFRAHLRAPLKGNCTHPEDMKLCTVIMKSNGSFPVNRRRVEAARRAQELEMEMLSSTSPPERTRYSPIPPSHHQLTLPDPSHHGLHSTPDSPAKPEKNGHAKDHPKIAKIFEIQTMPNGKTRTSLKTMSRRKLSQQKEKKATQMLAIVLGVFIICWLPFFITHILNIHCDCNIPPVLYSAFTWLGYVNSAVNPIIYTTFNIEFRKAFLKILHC
Method in brief: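 Compounds are added to dye-loaded, induced HEK293 T-REx cells coupled to calcium release via D2; after a 3 min kinetic read an EC80 dopamine stimulus is given and fluorescence is recorded for 3 more min.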
`CCc1ccc2occ(CC(=O)Nc3ccccc3C(F)(F)F)c2c1` gave an inhibition of 13.4%. In the case of `O=C(NCCn1ccc2ccccc21)c1ccc(Cl)cc1`, the inhibition is reported as 22.1%. In the case of `COc1ccccc1NC(=O)CSc1nc(-c2ccc(C(C)(C)C)cc2)c(C#N)c(=O)[nH]1`, the inhibition is reported as -12.7%. Compound `CCOc1ccccc1-n1nnc(-c2nsc(NC(=O)c3ccc(C)cc3)n2)c1C` has an inhibition of 10.8%. Work on `CCOc1ccc(C(=O)c2oc3ccccc3c2NC(=O)Cc2coc3ccc(CC)cc23)cc1` yielded an inhibition of -4.32%. With `Cc1cccc(NC(=O)N2CCC3(CC2)Oc2ccccc2C(=O)N3Cc2ccccc2F)c1C` the inhibition was 1.48%. In the case of `CCc1ccc(CNC(=O)c2c(C)oc3ncnc(N4CCOCC4)c23)cc1`, the inhibition is reported as -7.45%. `COc1cc2ccccc2cc1C(=O)Nc1ccc2oc(-c3ccc(F)cc3Cl)nc2c1` gave an inhibition of -1.31%. With `COc1cccc(C(=O)Nc2c(C(=O)N3CCN(c4ccc(F)cc4)CC3)oc3ccccc23)c1` the inhibition was 3.09%. `CN(C)CCCN1c2ccccc2CCc2ccccc21` was tested, and the inhibition was active: 60.4%. For `CCOc1ccc(NC(=O)C2CCC(CNS(=O)(=O)c3ccc(Br)s3)CC2)cc1` (stereo not drawn), the inhibition was 10.2%. With `CC1=C(c2ccc(C)c(C)c2)S(=O)(=O)N=C1N1CCC(C(=O)N2CCC(C)CC2)CC1` the inhibition was 15.9%. In the case of `Cc1ccccc1OCc1ccc(-c2nc(C#N)c(NCc3cccnc3)o2)o1`, the inhibition is reported as -0.995%. With `CCOc1cc(/C=C(\C#N)C(=O)NCC2CCCO2)ccc1O` (stereo not drawn) the inhibition was -5.92%. For `CCc1ccc(C(=O)c2cn(CC(=O)Nc3ccc4c(c3)OCO4)c3ccc(OC)cc3c2=O)cc1`, the inhibition was 5.77%. In the case of `Cn1c(C(=O)Nc2cccc(C(F)(F)F)c2)cc2c(=O)n3ccccc3nc21`, the inhibition is reported as -17%. For `Cc1ccc(N2CC(NC(=O)c3cccs3)CC2=O)cc1C` (stereo not drawn), the inhibition was 3.43%. For `Cc1cccc(NC(=O)c2ccc(-n3cnc4cccnc43)cc2)c1C`, the inhibition was 8.64%. In the case of `COc1cc(NC(=O)c2cccc3c2C(=O)N(C2CCCCC2)C3)cc(OC)c1OC`, the inhibition is reported as -3.65%. For `Fc1ccc([C@@H]2CCNC[C@H]2COc2ccc3c(c2)OCO3)cc1`, the inhibition was active: 40.7%. With `Oc1ccccc1-c1nc(/C=C/c2ccccc2Cl)nn1-c1ccccc1` the inhibition was 7.24%. Work on `CNc1ncnc2c1cnn2-c1ccc(C)c(C)c1` yielded an inhibition of 16.3%. For `Cc1ccccc1CNC(=O)CCCn1c(=O)c2cccn2c2cccnc21`, the inhibition was 1.5%. Compound `CCOC(=O)c1c(-c2ccc(OC)cc2)oc2ccc(OCc3ccccc3C)cc12` has an inhibition of -12.5%. In the case of `CCN(CC)CCNC(=O)C1CCN(c2nn3cc(-c4ccc(F)cc4)nc3s2)CC1`, the inhibition is reported as -11.4%. With `Cc1cccn2c(=O)c(C(=O)NCc3ccc(F)cc3)c(O)nc12` the inhibition was 12.4%. `CCOC(=O)c1c(C)[nH]c(C)c1S(=O)(=O)N1CCCC(C(=O)NCc2cccc(C)c2)C1` (stereo not drawn) showed an inhibition of -6.62%. `O=c1cc(-c2ccccc2)nc(SCc2nc(-c3ccccc3Cl)no2)[nH]1` showed an inhibition of 8.46%. `CCOc1cc(C(=O)Nc2cc3c(cc2N2CCOCC2)n(C)c(=O)n3C)cc(OCC)c1OCC` was tested, and the inhibition was -4.6%. For `Cc1ccc(CSc2nc3ccccc3c(=O)n2C)cc1`, the inhibition was active: 33.6%. `COc1ccc(C2Nc3ccccc3-c3cc(C)nn32)cc1OC` (stereo not drawn) was tested, and the inhibition was 18.9%. Work on `COc1ccc(CNC(=O)CCCN2C(=O)CSc3c2c(C)nn3-c2ccccc2)cc1` yielded an inhibition of -15.9%. Work on `COC(=O)c1cc2sc(C)cc2n1Cc1cccc(OC)c1` yielded an inhibition of 8.3%. For `COc1ccc(Cl)cc1NC(=O)CN(C)C(=O)c1ccc(OCc2ccccc2)c(OC)c1`, the inhibition was active: 36.9%. With `O=S(=O)(c1ccc(-c2csc(-c3cccnc3)n2)cc1)N1CCCCC1` the inhibition was active: 36.7%. Compound `Cc1ccc(Cn2c(C(=O)NCc3ccccc3Cl)cc3sccc32)cc1` has an inhibition of -15.9%. For `CCC1=C(c2ccc(C)cc2)S(=O)(=O)N=C1N1CCC(C(=O)Nc2ccccc2F)CC1`, the inhibition was 6.42%. In the case of `Cc1nc2sccn2c(=O)c1S(=O)(=O)Nc1ccc(N2CCOCC2)c(Cl)c1`, the inhibition is reported as 5.44%. `CSCCC(NC(=O)c1ccc(Cl)cc1)C(=O)OCC(C)=O` (stereo not drawn) was tested, and the inhibition was active: 32.1%. With `COC(=O)c1c(SCC(=O)Nc2cc(OC)cc(OC)c2)[nH]c2ccc(C)cc2c1=O` the inhibition was -4.46%. `O=C(CCC(=O)N1CC2CCCN2c2ccccc21)NCc1ccc(Cl)cc1` (stereo not drawn) gave an inhibition of 13.3%. `CCC1CCC(C(=O)NC(C(=O)Nc2cccc(OC)c2)C(C)C)CC1` (stereo not drawn) gave an inhibition of -6.44%. Work on `Cc1cccc(NC(=O)CSc2nnc3[nH]c(=O)cc(-c4ccccc4)n23)c1C` yielded an inhibition of -12.9%. In the case of `CCOc1ccc(CNCc2c(C(=O)O)c(C)n(Cc3cccc(OC)c3)c2C)cc1OC`, the inhibition is reported as 8.39%. `Cc1nc2nc(CNC(=O)OC(C)(C)C)nn2c(C)c1CCC(=O)NCc1ccc(F)cc1` showed an inhibition of -6.5%. For `CCCOc1cccc(C(=O)Nc2cccc3cccnc23)c1`, the inhibition was -0.0078%. `CCN(C(=O)c1nn(-c2ccc(OC)c(Cl)c2)c(=O)c2c1c1ccccc1n2C)c1cccc(C(F)(F)F)c1` showed an inhibition of -19.4%. `O=C(CN1C(=O)COc2ccc(Cl)cc21)Nc1ccc(F)cc1` showed an inhibition of -22.8%. With `COc1ccc(-c2nc3ccc(NS(=O)(=O)c4ccc(C)cc4)cc3o2)cc1` the inhibition was 0.0338%. For `O=C(OCc1cc(=O)n2nc(-c3cccs3)sc2n1)c1ccc(Cl)cc1`, the inhibition was 9.38%. In the case of `COc1cccc(CNC(=O)c2cc3c(s2)-c2ccccc2OC3)c1`, the inhibition is reported as -6.75%. `COc1ccc(-n2c(=O)c3c4c(sc3n(Cc3ccc(F)cc3)c2=O)CCCC4)c(OC)c1` was tested, and the inhibition was 4.49%. `Cc1nnc(SCc2cc(=O)oc3cc(O)ccc23)n1Cc1ccccc1` was tested, and the inhibition was active: 30.3%. In the case of `COc1ccccc1NC(=O)C1=C(C)Nc2ncnn2C1c1ccccc1C(=O)O` (stereo not drawn), the inhibition is reported as 7.41%. Work on `COc1ccc(NC(=O)c2cc(C3CC3)nc3c2c(C)nn3-c2ccccc2)cc1` yielded an inhibition of 0.49%. For `Cc1ccc(OCC(=O)Nc2nnc(SCc3cc(=O)c4ccccc4[nH]3)s2)cc1`, the inhibition was -1.23%. In the case of `CCOc1ccccc1C(=O)Nc1ccc2nc(N(CC)CC)cc(C)c2c1`, the inhibition is reported as -2.64%. With `CCOc1ccc(CNS(=O)(=O)c2cc3c(cc2C)NC(=O)CO3)cc1OC` the inhibition was -2.76%. With `Cc1cc(N2CCCCC2)nc2ccc(NC(=O)c3cccc(Cl)c3)cc12` the inhibition was -27.7%. `CCOC(=O)c1c(S(=O)(=O)N2CCCC(C(=O)Nc3cccc(Cl)c3)C2)c(C)n(C)c1C` (stereo not drawn) showed an inhibition of 12.9%. With `Cc1ccc(-c2nnc(N3CCN(C(=O)CSc4ncn[nH]4)CC3)c3ccccc23)cc1` the inhibition was active: 46.6%. With `COc1ccccc1NC(=O)C(=O)NCCc1csc(-c2cccc(F)c2)n1` the inhibition was 0.545%. With `CCCCN(CC)CCCNC(=O)CCN1N=C(c2ccc(OC)cc2)CCC1=O` the inhibition was -9.8%.
